Assay results: US20200079801A1, “TRISUBSTITUTEDSILYLBENZYLBENZIMIDAZOLES AND ANALOGUES” (Bayer Aktiengesellschaft, priority 2017, published 2020)

Method: In table 1, the logP values were determined in accordance with EEC Directive 79/831 Annex V.A8 by HPLC (High Performance Liquid Chromatography) on a reversed-phase column (C 18), using the method described below:
temperature: 40° C.; mobile phases: 0.1% aqueous formic acid and acetonitrile; linear gradient from 10% acetonitrile to 95% acetonitrile;
Calibration was carried out using unbranched alkan-2-ones (comprising 3 to 16 carbon atoms) with known logP values (determination of the logP values by the retention times using linear interpolation between two successive alkanones). lambda-max-values were determined using UV-spectra from 200 nm to 400 nm and the peak values of the chromatographic signals.

Row | Compound | logP
1 | C[Si](C)(c1cccs1)c1ccccc1Cn1cnc2ccccc21 [I.02] | 2.52
2 | Cc1nc2ccccc2n1Cc1ccccc1[Si](C)(C)c1ccccc1 [I.03] | 2.50
3 | C[Si](C)(Cc1ccccc1)c1ccccc1Cn1cnc2ccccc21 [I.04] | 3.04
4 | Cc1nc2ccccc2n1Cc1ccccc1[Si](C)(C)c1cccs1 [I.05] | 2.36
5 | C[Si](C)(c1cccs1)c1ccccc1Cn1cnc2c(F)cccc21 [I.06] | 4.10
6 | C[Si](C)(c1cccs1)c1ccccc1Cn1cnc2cccc(F)c21 [I.07] | 3.87
7 | C[Si](C)(c1ccccc1)c1ccccc1Cn1cnc2ccccc2c1=O [I.08] | 4.32
8 | Cc1cc2ncn(Cc3ccccc3[Si](C)(C)c3ccccc3)c2cc1C [I.09] | 2.71
9 | Cc1nc2ccccc2n1Cc1ccccc1[Si](C)(C)Cc1ccccc1 [I.10] | 2.74
10 | Cc1cc2ncn(Cc3ccccc3[Si](C)(C)c3cccs3)c2cc1C [I.11] | 2.60
11 | C[Si](C)(c1ccc(Cl)cc1)c1ccccc1Cn1cnc2ccccc21 [I.12] | 2.86
12 | C[Si](C)(c1ccc(Cl)nc1)c1ccccc1Cn1cnc2ccccc21 [I.13] | 2.08
13 | Cc1nc2c(F)cccc2n1Cc1ccccc1[Si](C)(C)c1cccs1 [I.14] | 3.84
14 | Cc1nc2cccc(F)c2n1Cc1ccccc1[Si](C)(C)c1cccs1 [I.15] | 3.46
15 | C[Si](C)(c1cccs1)c1ccccc1Cn1cnc2cc(F)c(F)cc21 [I.16] | 4.20
16 | C[Si](C)(c1cccs1)c1ccccc1Cn1cnc2c(F)c(F)ccc21 [I.17] | 4.37
17 | C[Si](C)(c1cccs1)c1ccccc1Cn1cnc2ccc(F)c(F)c21 [I.18] | 4.37
18 | Cc1nc2ccccc2c(=O)n1Cc1ccccc1[Si](C)(C)c1ccccc1 [I.19] | 4.54
19 | Cc1cc2ncn(Cc3ccccc3[Si](C)(C)Cc3ccccc3)c2cc1C [I.20] | 3.08
20 | Cc1cc2nc(C)n(Cc3ccccc3[Si](C)(C)c3ccccc3)c2cc1C [I.21] | 2.67
21 | Cc1cc2nc(C)n(Cc3ccccc3[Si](C)(C)c3cccs3)c2cc1C [I.22] | 2.58
22 | Cc1nc2ccccc2n1Cc1ccccc1[Si](C)(C)c1ccc(Cl)cc1 [I.23] | 2.71
23 | C[Si](C)(Cc1ccccc1)c1ccccc1Cn1cnc2c(Cl)cccc21 [I.24] | 4.80
24 | C[Si](C)(Cc1ccccc1)c1ccccc1Cn1cnc2cccc(Cl)c21 [I.25] | 4.98
25 | Cc1nc2ccccc2n1Cc1ccccc1[Si](C)(C)c1ccc(Cl)nc1 [I.26] | 2.10
26 | C[Si](C)(c1ccc(Cl)nc1)c1ccccc1Cn1cnc2c(F)cccc21 [I.27] | 3.48

Row | Compound | logP
27 | C[Si](C)(c1ccc(Cl)nc1)c1ccccc1Cn1cnc2cccc(F)c21 [I.28] | 3.29
28 | Cc1nc2ccc(F)c(F)c2n1Cc1ccccc1[Si](C)(C)c1cccs1 [I.30] | 4.35
29 | Cc1cc2nc(C)n(Cc3ccccc3[Si](C)(C)Cc3ccccc3)c2cc1C [I.31] | 2.84
30 | Cc1cc2ncn(Cc3ccccc3[Si](C)(C)c3ccc(Cl)cc3)c2cc1C [I.32] | 2.86
31 | C[Si](C)(c1ccccc1)c1ccccc1Cn1cnc2cccc(C(F)(F)F)c21 [I.33] | 5.11
32 | C[Si](C)(c1ccccc1)c1ccccc1Cn1cnc2c(C(F)(F)F)cccc21 [I.34] | 4.93
33 | C[Si](C)(c1ccc(Cl)nc1)c1ccccc1Cn1cnc2c(Cl)cccc21 [I.35] | 3.65
34 | C[Si](C)(c1ccc(Cl)nc1)c1ccccc1Cn1cnc2cccc(Cl)c21 [I.36] | 3.72
35 | C[Si](C)(c1ccc(Cl)nc1)c1ccccc1Cn1cnc2c(F)c(F)ccc21 [I.37] | 3.74
36 | C[Si](C)(c1ccc(Cl)nc1)c1ccccc1Cn1cnc2ccc(F)c(F)c21 [I.38] | 3.81
37 | C[Si](C)(c1ccc(Cl)nc1)c1ccccc1Cn1cnc2cc(F)c(F)cc21 [I.39] | 3.37
38 | Cc1cc2nc(C)n(Cc3ccccc3[Si](C)(C)c3ccc(Cl)cc3)c2cc1C [I.41] | 2.86
39 | C[Si](C)(Cc1ccccc1)c1ccccc1Cn1c(C(F)(F)F)nc2ccccc21 [I.42] | 5.78
40 | Cc1nc2ccc(F)c(F)c2n1Cc1ccccc1[Si](C)(C)c1ccc(Cl)nc1 [I.43] | 3.76
41 | Cc1nc2c(F)c(F)ccc2n1Cc1ccccc1[Si](C)(C)c1ccc(Cl)nc1 [I.44] | 3.92
42 | C[Si](C)(c1ccc(Cc2ccccc2)cc1)c1ccccc1Cn1cnc2ccccc21 [I.45] | 3.61
43 | C[Si](C)(c1ccc(Oc2ccccc2)cc1)c1ccccc1Cn1cnc2ccccc21 [I.47] | 3.54
44 | Cc1nc2ccccc2n1Cc1ccccc1[Si](C)(C)c1ccc(Cc2ccccc2)cc1 [I.49] | 3.33
45 | Cc1nc2ccccc2n1Cc1ccccc1[Si](C)(C)c1ccc(Oc2ccccc2)cc1 [I.50] | 3.18
46 | C[Si](C)(c1ccccc1)c1ccccc1Cn1cnc2c(Br)cccc2c1=O [I.51] | 5.08
47 | Cc1cc2ncn(Cc3ccccc3[Si](C)(C)c3ccc(Cc4ccccc4)cc3)c2cc1C [I.52] | 3.51
48 | Cc1cc2ncn(Cc3ccccc3[Si](C)(C)c3ccc(Oc4ccccc4)cc3)c2cc1C [I.54] | 3.39
49 | Cc1cc2nc(C)n(Cc3ccccc3[Si](C)(C)c3ccc(Oc4ccccc4)cc3)c2cc1C [I.55] | 3.33
50 | C[Si](C)(Cc1ccccc1)c1ccccc1Cn1cnc2ncccc21 [I.56] | 3.98
51 | C[Si](C)(Cc1ccccc1)c1ccccc1Cn1cnc2cccnc21 [I.57] | 3.31
